The whole screen tested about 390,000 compounds, of which about 17,000 (4.4%) were called active. The inconclusive results got no clear call from the source; some entries with a clear call stand among them for comparison. The call rests on the fitted dose curve; in most records, active means well fitted inhibition curve with a large enough effect; inconclusive means small, poorly fitted or top-dose-only effect; inactive means no such curve, though single readings can be large or run the other way. Potencies beside an inconclusive call are fits to weak or partial responses and may not hold up.
What follows are compounds tested against Lysine-specific demethylase 4A (Homo sapiens) (UniProt O75164) (assay: qHTS Assay for Inhibitors of JMJD2A-Tudor Domain). Settings: AlphaScreen JMJD2A-Tudor / H3K4me3 peptide binding; activity change, negative = inhibition: at 114 µM (top of the series).
Further: nearly all actives have a fitted effect of over 50% in size.
On the % scale 0 is the no-effect control and ±100 the full control effect; potency means the concentration at half of the fitted maximal effect; tags describe the fitted curve by direction and shape.

Chain of UniProt O75164 (O75164 whole entry, looked up, the tested form may be a part): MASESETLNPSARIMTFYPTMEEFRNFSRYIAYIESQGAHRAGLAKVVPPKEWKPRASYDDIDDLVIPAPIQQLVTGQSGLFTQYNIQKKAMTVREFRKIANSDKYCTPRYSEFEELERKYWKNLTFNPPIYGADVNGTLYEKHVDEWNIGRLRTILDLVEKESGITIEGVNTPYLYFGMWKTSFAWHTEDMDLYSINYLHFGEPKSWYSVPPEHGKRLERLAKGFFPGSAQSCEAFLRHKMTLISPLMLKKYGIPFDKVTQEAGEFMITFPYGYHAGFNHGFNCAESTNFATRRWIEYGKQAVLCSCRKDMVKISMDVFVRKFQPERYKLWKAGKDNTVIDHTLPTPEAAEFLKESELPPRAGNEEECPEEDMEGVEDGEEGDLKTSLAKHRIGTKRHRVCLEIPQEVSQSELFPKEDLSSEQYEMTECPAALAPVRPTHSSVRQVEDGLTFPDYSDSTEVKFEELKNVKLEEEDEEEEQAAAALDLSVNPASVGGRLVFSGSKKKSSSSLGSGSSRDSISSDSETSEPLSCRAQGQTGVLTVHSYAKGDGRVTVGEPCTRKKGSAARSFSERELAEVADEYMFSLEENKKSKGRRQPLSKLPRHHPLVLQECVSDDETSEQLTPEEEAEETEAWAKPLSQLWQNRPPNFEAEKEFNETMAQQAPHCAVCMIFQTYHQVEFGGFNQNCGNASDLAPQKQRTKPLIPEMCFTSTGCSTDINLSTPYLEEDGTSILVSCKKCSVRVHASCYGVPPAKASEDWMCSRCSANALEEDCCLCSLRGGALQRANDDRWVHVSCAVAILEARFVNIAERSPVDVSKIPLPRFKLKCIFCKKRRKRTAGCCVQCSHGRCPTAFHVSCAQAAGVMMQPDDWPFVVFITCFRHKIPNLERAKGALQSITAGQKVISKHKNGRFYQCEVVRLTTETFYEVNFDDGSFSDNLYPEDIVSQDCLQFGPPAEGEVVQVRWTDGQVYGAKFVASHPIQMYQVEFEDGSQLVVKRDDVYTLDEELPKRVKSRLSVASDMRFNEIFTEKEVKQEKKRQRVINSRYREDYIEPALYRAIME

Compound	Potency	activity change, negative = inhibition
CCOC(=O)c1ccc(NC2(c3ccccc3)C(=O)c3ccccc3C2=O)cc1	inconclusive: 50.1 µM [inhibitor, partial curve]	
Cc1ccn2c(C(=O)NN=C3CCN(C)CC3)c(C)nc2c1	inconclusive: 3.98 µM [inhibitor, single point]	
Cc1ccc(/C=N/N2CCCCC2)o1	inactive	
Cc1c(N=C2C=CC(=O)c3ccccc32)c(=O)n(-c2ccccc2)n1C	active: 44.7 µM	
CCOc1ccc(Cn2c(=O)oc3ccc(C)cc32)cc1OC	inactive	
O=c1c(-n2cncn2)c[nH]n1-c1cccc(Cl)n1	active: 50.1 µM	
O=C(O)C1C2C=CC(C2)C1C(=O)Nc1cccc(F)c1 (centres undefined)	inactive	
Cc1nn(-c2ccccc2)c(N2CCCC2)c1/C=N/NC(=O)c1cc(-c2cccnc2)nc2ccccc12	inconclusive: 25.1 µM [inhibitor, partial curve]	
COc1cc(OC)cc(C(=O)NC(=S)Nc2nnn(C)n2)c1	inconclusive: 44.7 µM [inhibitor, partial curve]	
C/C(=N\NC(=O)c1cc(C(C)(C)C)[nH]n1)C12CC3CC(CC(C3)C1)C2	inconclusive: 22.4 µM [inhibitor, partial curve]	
O=C(NCc1ccc(Cl)cc1)c1ccc2c(c1)NC(=O)C(CS(=O)(=O)Cc1ccc(F)cc1Cl)N2 (centres undefined)	inconclusive: 79.4 µM [inhibitor, partial curve]	
Cc1ccc(NC(=S)C2=C(O)c3sccc3N(C)S2(=O)=O)cc1	inactive	
COC(=O)c1ccc(CS(=O)(=O)c2ccc(C)cc2)o1	inactive	
N#Cc1nc(-c2ccccc2Cl)oc1NCc1ccco1	inconclusive: 79.4 µM [inhibitor, single point]	
COc1ccccc1/C=C/C=C1N=C(/C=C/c2ccc(Cl)cc2)OC/1=O	inconclusive: 10 µM [inhibitor, full curve]	
Cc1cc[n+](-c2[nH]c(=O)sc2/C=N/N=C(\[O-])c2ccccc2)cc1	inconclusive: 100 µM [inhibitor, partial curve]	
CC1CCN(c2oc(Cc3cccc4ccccc34)nc2C#N)CC1	inconclusive: 35.5 µM [inhibitor, partial curve]	
N#Cc1c(-c2ccco2)cc(-c2ccc(F)cc2)nc1N	inactive	
Cc1csc(Nc2cccc3ccccc23)n1		inconclusive: -38.4% [inhibitor]
OCCN1CCN(c2cc(-c3ccccc3)c3ccccc3n2)CC1	active: 0.794 µM	
CN1C[C@@H]2C(c3ccc(C(F)(F)F)cc3)C3(c4cccnc4)CC2(C3)[C@H]1c1ccccc1 (some centres undefined)	inconclusive: 35.5 µM [inhibitor, partial curve]	
Cc1cc(C(=O)CSc2nc3ccccc3[nH]2)c(C)n1Cc1ccco1	inconclusive: 12.6 µM [inhibitor, full curve, poor fit]	
O=[N+]([O-])c1ccc(Cl)c(-c2ccc(/C=N/n3cnnc3)o2)c1	inconclusive: 4.47 µM [inhibitor, full curve, poor fit]	
COc1ccc(CCN(C)CCC(=O)Nc2ccc(C)cc2)cc1OC	inactive	
O=C(CNC(=O)c1ccc2ccccc2c1)Nc1ncccc1O	active: 79.4 µM	

Compound	Potency	activity change, negative = inhibition
CCCCOC(=O)Nc1nc2ccc(OC)cc2s1	inconclusive: 89.1 µM [inhibitor, single point]	
CCCCN1CCCc2cc(CN(CCCN3CCOCC3)C(=O)Nc3ccc(CC)cc3)ccc21	active: 7.94 µM	
CNc1nc(Cl)c(SC)c(NCc2cccc(OC)c2)n1	inconclusive: 11.2 µM [inhibitor, full curve, poor fit]	
Cc1ccc(C(=O)NCCc2n[nH]c(=S)n2C)cc1	inconclusive: 20 µM [inhibitor, full curve]	
O=C(O)c1ccc(Nc2nc(-c3ccccc3)cs2)cc1	inactive	
CC(C)NC(=S)NN=C1CCCCCCCCCCC1	inconclusive: 56.2 µM [inhibitor, partial curve]	
CCCCNc1oc(-c2ccc(COc3ccccc3C)o2)nc1C#N	inactive	
CC1(C)Cc2cccc(OCC(=O)NCc3ccc(F)cc3)c2O1	inconclusive: 112 µM [inhibitor, partial curve, poor fit]	
Cc1cccc(C(C)(C)C)c1OCCN1CCCC1	active: 4.47 µM	
Cc1cc(C(=O)NCC(=O)Nc2c(C)cccc2C)c(C)o1	inactive	
Cc1cc(O)c(/C=N/Nc2ccc(F)cc2)c(=O)o1	inconclusive: 11.2 µM [inhibitor, full curve, poor fit]	
CCOc1ccc(S(=O)(=O)N2CCCCC2)c2ccccc12	inconclusive: 3.98 µM [inhibitor, single point]	
CCCCCOc1ccc(C(=O)CCC(=O)NNC(=O)c2ccncc2)cc1	inactive	
O=C(N/N=C/c1cc(Br)cc([N+](=O)[O-])c1O)c1ccc(NC(=O)c2ccc(F)cc2)cc1	active: 31.6 µM	
O=C(CC1C(=O)NCCN1Cc1cccc(Oc2ccccc2)c1)NCCc1cscn1 (centres undefined)	inconclusive: 25.1 µM [inhibitor, full curve, poor fit]	
Brc1ccc2ncnc(Nc3ccc(N4CCOCC4)cc3)c2c1	inconclusive: 56.2 µM [inhibitor, partial curve]	
COc1ccc2c(c1)c1c(c(=O)n(Cc3ccccc3)c(=O)n1Cc1ccccc1Cl)n2C	inactive	
CC(NCc1cccc(S(=O)(=O)N(C)C)c1)c1ccc(F)cc1 (centres undefined)	active: 22.4 µM	
COc1ccc(N2CCN(C(=O)COc3ccccc3C#N)CC2)cc1	inactive	
CCN1C(=O)/C(=C/c2c(C)nn(C)c2C)SC1=S	inconclusive: 50.1 µM [inhibitor, partial curve]	
N#Cc1c(/N=C/N2CCOCC2)sc2c1CCCCC2	inconclusive: 25.1 µM [inhibitor, single point]	
O=C(O)CCN1CCc2ccccc21	inactive	
Cc1cccc(-n2c(O)c(C=NCc3ccccn3)c3ccccc3c2=O)c1	inactive	
O=C(c1ccc(Br)cc1)N1CCCc2ccccc21	inconclusive: 89.1 µM [inhibitor, single point]	

— PubChem BioAssay AID504339 (National Center for Advancing Translational Sciences (NCATS), 2011)
